# Source: a collection of fitness landscapes (doi:10.1038/s41467-024-54723-y)
# The full ranking holds about 18,000 sequences; the median of “TetR repression strength (sort-seq, GFP reporter)” is about 0.23, and the highest 2% start at about 0.68. Some of the results follow.
# Target: TetR (class B, Tn10) (UniProt P04483)
# Test: TetR repression strength (sort-seq, GFP reporter) (relative to tetO2 = 1); higher = stronger repression
# Details: E. coli
# In short: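 Escherichia coli SIG10-MAX cells carried a low-copy plasmid library in which eight operator positions were randomized between a constitutive promoter and sfGFP, and TetR was expressed constitutively. After 5 h of growth at 37 °C in LB with 50 µg/mL chloramphenicol, 10^6 cells were FACS-sorted into 13 fluorescence bins, and each bin was Illumina-sequenced. Repression strength was the top bin index plus one minus the read-weighted mean bin, divided by the value for the unaltered operator. Across three independent transformations, only library members with ≥30 reads in every replicate and a CV ≤0.5 were averaged.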
# Sequence of UniProt P04483 (P04483 whole entry): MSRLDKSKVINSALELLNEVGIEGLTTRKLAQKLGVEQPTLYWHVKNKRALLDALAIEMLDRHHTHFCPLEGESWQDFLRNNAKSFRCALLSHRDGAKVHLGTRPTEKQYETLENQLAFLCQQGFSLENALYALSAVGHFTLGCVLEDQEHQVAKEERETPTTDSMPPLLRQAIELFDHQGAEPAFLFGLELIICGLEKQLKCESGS
row,Sequence,TetR repression strength
1,TCCCGAGGAGTGGTGGAGA,0.104
2,TCCCCGCCAGTCGGGGAGA,0.179
3,TCCCTAGCAGTCAAAGAGA,0.295
4,TCCCCCGTAGTGAAGGAGA,0.163
5,TCCCTTTGAGTTGTTGAGA,0.341
6,TCCCGTAAAGTCAACGAGA,0.311
7,TCCCTGGGAGTAAAGGAGA,0.0803
8,TCCCATAAAGTGAGGGAGA,0.243
9,TCCCTCTGAGTAGGGGAGA,0.224
10,TCCCTAAGAGTACACGAGA,0.166
11,TCCCGAGCAGTAAGCGAGA,0.344
12,TCCCGCCGAGTTGTTGAGA,0.0225
13,TCCCGGGGAGTAGACGAGA,0.339
14,TCCCGCATAGTTTGGGAGA,0.207
15,TCCCTGGCAGTAGGGGAGA,0.185
16,TCCCCAGTAGTTGGTGAGA,0.114
17,TCCCATGTAGTGTTTGAGA,0.104
18,TCCCCAATAGTAGAGGAGA,0.37
19,TCCCCCCTAGTAGCAGAGA,0.32
20,TCCCGTGTAGTTGGGGAGA,0.248
21,TCCCGAACAGTGGCGGAGA,0.0919
22,TCCCGGAAAGTAACGGAGA,0.0312
23,TCCCTAAGAGTTTGGGAGA,0.111
24,TCCCGTTCAGTTTAAGAGA,0.481
25,TCCCGTAGAGTCTCTGAGA,0.183
26,TCCCCCGGAGTGTGTGAGA,0.281

row,Sequence,TetR repression strength
1,TCCCAACAAGTCGGAGAGA,0.324
2,TCCCCGCTAGTAGTGGAGA,0.347
3,TCCCGTGGAGTATTTGAGA,0.338
4,TCCCGGTCAGTAGATGAGA,0.197
5,TCCCTATCAGTCGTAGAGA,0.557
6,TCCCAGAAAGTGAGGGAGA,0.254
7,TCCCGAGTAGTGGATGAGA,0.149
8,TCCCGGGGAGTGTGGGAGA,0.25
9,TCCCGCGTAGTCGATGAGA,0.303
10,TCCCTAATAGTATGTGAGA,0.253
11,TCCCCGTCAGTTTCTGAGA,0.0269
12,TCCCGTACAGTATCGGAGA,0.253
13,TCCCCCTGAGTGTGCGAGA,0.518
14,TCCCCTGCAGTGTTTGAGA,0.418
15,TCCCACAGAGTTAGGGAGA,0.22
16,TCCCTTTTAGTGCTTGAGA,0.322
17,TCCCAGTTAGTCTCCGAGA,0.178
18,TCCCTTTGAGTTTCGGAGA,0.148
19,TCCCGTCTAGTGGCTGAGA,0.22
20,TCCCAGGCAGTGCCAGAGA,0.0122
21,TCCCGTAGAGTGGGCGAGA,0.193
22,TCCCTCCGAGTGCAGGAGA,0.492
23,TCCCATAGAGTATAGGAGA,0.181
24,TCCCGAACAGTGTCGGAGA,0.191
25,TCCCTGTGAGTTAGGGAGA,0.285
26,TCCCATGAAGTACATGAGA,0.235

row,Sequence,TetR repression strength
1,TCCCGTTAAGTGGACGAGA,0.0963
2,TCCCGGATAGTCTTTGAGA,0.125
3,TCCCGGATAGTCTAGGAGA,0.179
4,TCCCCAAAAGTTGTTGAGA,0.452
5,TCCCGAATAGTTGCGGAGA,0.101
6,TCCCCAGGAGTACGCGAGA,0.207
7,TCCCCAGGAGTGGTAGAGA,0.189
8,TCCCGTATAGTAGGGGAGA,0.0295
9,TCCCATGGAGTTAAAGAGA,0.356
10,TCCCCGGAAGTTTTCGAGA,0.107
11,TCCCTCACAGTGGTAGAGA,0.157
12,TCCCCTATAGTACAGGAGA,0.792
13,TCCCCGTAAGTATGCGAGA,0.0115
14,TCCCTGATAGTGTAGGAGA,0.0352
15,TCCCTGTCAGTCTTAGAGA,0.117
16,TCCCAGGGAGTAGTGGAGA,0.166
17,TCCCCGGAAGTGTGTGAGA,0.208
18,TCCCAACCAGTTGAGGAGA,0.248
19,TCCCTGGCAGTCGGCGAGA,0.362
20,TCCCGTATAGTGGGCGAGA,0.0906
21,TCCCCAGGAGTCCAGGAGA,0.321
22,TCCCGGCGAGTCCTCGAGA,0.458
23,TCCCCGGCAGTCGAGGAGA,0.0942
24,TCCCCGCTAGTGGAGGAGA,0.234
25,TCCCCACGAGTAGTCGAGA,0
26,TCCCTACGAGTGTCGGAGA,0.258

row,Sequence,TetR repression strength
1,TCCCTAGTAGTTGTTGAGA,0.308
2,TCCCGTACAGTGATTGAGA,0.368
3,TCCCATCTAGTTATAGAGA,0.333
4,TCCCGTTTAGTGGTCGAGA,0.0709
5,TCCCGGTAAGTACGAGAGA,0.218
6,TCCCGCGCAGTGCATGAGA,0.281
7,TCCCTGGGAGTATTGGAGA,0.191
8,TCCCTTCAAGTTCTGGAGA,1.03
9,TCCCCCTTAGTTTTGGAGA,0.162
10,TCCCTCGGAGTGGTGGAGA,0.157
11,TCCCAGCCAGTGCGGGAGA,0.255
12,TCCCGGAAAGTCTGCGAGA,0.201
13,TCCCAGGGAGTGGACGAGA,0.379
14,TCCCATTCAGTATTAGAGA,0.443
15,TCCCGGGCAGTGTATGAGA,0.135
16,TCCCACGCAGTGTTGGAGA,0.393
17,TCCCTTGGAGTCGATGAGA,0.0828
18,TCCCGCTTAGTGTGTGAGA,0.218
19,TCCCGCAGAGTTAGAGAGA,0.5
20,TCCCCATCAGTGGGGGAGA,0.275
21,TCCCTTGCAGTATTAGAGA,0.235
22,TCCCGTCGAGTTAGGGAGA,0.0766
23,TCCCAGCCAGTGAACGAGA,0.124
24,TCCCGTTCAGTGGACGAGA,0.323
